According to the supplement of paper PMC11417369:
The other results are listed elsewhere or left out.

tested on: PfHDP1 homeodomain (GST-tagged); experiment: gcPBM binding intensity (ln(normalized median fluorescence intensity)); higher = stronger DNA binding
In short: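 For binding intensity, the highest Masliner-normalised natural-log median intensity across replicate spots of either probe orientation was taken. Protein bound to the array was stained with Alexa488 anti-GST antibody and scanned at 488 nm. The protein, GST-tagged P. falciparum DNA-binding domains from E. coli at about 25 μg on average, had been applied for 1 h to an Agilent 4 × 180k array of primer-extended double-stranded 36-bp intergenic genomic probes and negative controls.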

| Sequence | gcPBM binding intensity (ln) |
| --- | --- |
| TAAATATATATAATTACACACTTTTCTATAATATGA [CACACA_site711] | 6.5 |
| ATATCGTGTGCATTAACACACATTTATTTGAATAAA [CACACA_site7162] | 9.51 |
| GATATATAAATAGATACACACATACATACATACATA [CACACA_site6260] | 7.03 |
| AAAAAAAAAAAAAAAACACACATAAATAGCTCAAAT [CACACA_site3973] | 6.69 |
| CACATACCCATACAAACACACATTATATATATATAT [CACACA_site4965] | 8.96 |
| TACGATTAAAAAAAATGTACAGATTTTTATAGAATA [XGTACX_site6561] | 6.17 |
| ATATAATTACCATATGGTACACACATATATATATGT [XGTACX_site7393] | 7.23 |
| TTTTGTAGCAAAAAATAGGAAAAAAAAAAATTAAAT [GTGCAC_negctrl_site8] | 6.59 |
| ATATTACCCATATATGCACACATTGTAGTTATTTAT [CACACA_site2636] | 9.18 |
| TTAAGATACAAAAAAGTGCATATTTTTTAACAAAAA | 7.32 |
| ATGTAGACATAATGGGGTACAAAAAAAAAAAAAAAA [XGTACX_site881] | 6.3 |
| TATCATTTTGTATATAGTACATATATAAAATCGTTA [XGTACX_site3875] | 6.17 |
| AAAAAAAATAAAAATAAAAATAAAAATAAAAATAAA [GTGCAC_negctrl_site437] | 6.45 |
| AGTCATTAAATATAATGTACATGGAAAAACAGCTGA [XGTACX_site7944] | 6.77 |
| GGAATATTTATACATACACACATATATTTATTTATA [CACACA_site6883] | 6.61 |
| CAAGCACCCAGACACACACACACACCCACACCCACA [CACACA_site369] | 6.31 |
| ATAAAAATAACATATAAACACACATATATATATATA [CACACA_site9267] | 9.12 |
| AATATAAACATAGATAGATAAATAAATAAATAAACA [GTGCAC_negctrl_site567] | 6.42 |
| AACAGATATATATGTAGTACATGTTCTAGATATTTT [XGTACX_site1208] | 6.48 |
| AATAATTGTTAAAGGTGTACAATACGTATGTAAGAA [XGTACX_site1328] | 7.32 |
| TTGTTCTTTTTTTTTTTATTTTTTAATTTGAAAAGA [CACACA_negctrl_site209] | 6.3 |
| AAAAAGAAAAAACGAAGTACAATTATAAGATTATAT [XGTACX_site410] | 6.25 |
| GTACAGATAAATATTACACACATTTTCATTTTTAAC [CACACA_site5140] | 6.67 |

| Sequence | gcPBM binding intensity (ln) |
| --- | --- |
| TATGTGCCAAGACACACACACATATTTATATTTATA [CACACA_site6360] | 6.51 |
| TATGAAAAATATCTTTGTACTTAGAAATATATACAC [XGTACX_site5393] | 6.25 |
| ATTCTATATACACGCACACACACTTATATATATATA [CACACA_site3322] | 8.85 |
| TTATTATTATATGAATGTACTTAAAAATACATTTTG [XGTACX_site2959] | 5.92 |
| CCCTTTTCTAAATATTGTACGTATAAATTATATTAC [XGTACX_site7676] | 6.87 |
| AAAAAAAAAAGAAACACACACATTTGTATTTAATAT [CACACA_site5184] | 6.52 |
| GTGATTTAATTGTGTTGTACATATTTATAAATAAAA [XGTACX_site8966] | 6.67 |
| ACACAATATATATATTGTACATACACATATTTACTA [XGTACX_site1872] | 6.71 |
| TTTTTCTTGAATCGAAGTACTTAGGAGGGGATATTT [XGTACX_site2862] | 6.94 |
| GAAATGTATATTTTTACATGCAAATAAAATATATAA [TGCATGCA_site439] | 6.57 |
| CATACACATAGACACACACACATATATACCTATATA [CACACA_site6644] | 7 |
| ATAACGACCTAGACGTGTACATACAAAGGAATGAAA [XGTACX_site4870] | 6.54 |
| GAATATAAACATATTACACACATCTATAGGTACATT [CACACA_site6983] | 6.53 |
| AGGACTAATATTTGAACACACATATAATATATACAT [CACACA_site3998] | 6.42 |
| AATATATACATATATGTACACACATTACAGATGTAC [CACACA_site8227] | 6.67 |
| ATAGAATCTGGTAGCTGTACGAGTCGTAGAGTGCAG [XGTACX_site2026] | 6.67 |
| AAAAAAATATTATAATATATATATATATATATATAT [GTGCAC_negctrl_site399] | 9.33 |
| AGAGATTATAAAATATGTACTAAATATTAAATCTTA [XGTACX_site7050] | 5.91 |
| ATTTTTTAAAAAGTAACACACACTCTTATAAATAAC [CACACA_site7668] | 6.7 |
| AAAGAAAGCACATACACACACAAAAAAAAAAAAGAA [CACACA_site776] | 6.61 |
| AAAGTAAAAATATACTGTACAAATTTTTTCCCCTCT [XGTACX_site171] | 6.5 |
| AAACAAAAAAAAAAAAAAAAAAAAAAAAAAAAAAAA [GTGCAC_negctrl_site254] | 6.1 |
